Measured values published in the supplement of paper PMC11125491.
± gives the standard deviation of the averaged measurements. Growth of baker's yeast expressing single-residue variants of Pneumocystis jirovecii dihydrofolate reductase in 8.8 or 44 µM methotrexate (about 75% and 90% inhibition of the wild type). Selection coefficient per generation; 0 = like wild type, above 0 = less sensitive, below 0 = more sensitive or loss of function. No active / inactive call per row; the paper calls resistant above 0.220 (8.8 µM) or 0.243 (44 µM) together with a significance test. At 44 µM about 15% of codons end with one read or none, so the lowest values are floors (replicate rank correlation 0.74; 0.94 at 8.8 µM).

B1: UniProt A0EPZ9; numbered along this chain (parent)
chain: MDWQKSLTLIVALTLSRGIGLKNDLPWKLKSDMMFFSRVTSGLLVTRSTGQMNVVLMGRKTWESLPAHSRPLKNRINVVISRQEVLDLGGGAYHARSLDDALALLSQIYDSTSKIQLNRVFVIGGGELCKAAMEHSRLNRIIATVIHNEVDCDVFFPIDFRSSQSCLPWRKQDHSVLEAWVGSKVPQGKINENGFIYEFEMWIRDI

Variants of: B1
Assay: selection coefficient against synonymous wild-type codons (log2 per generation); higher = faster growth than wild type
Settings: with Saccharomyces cerevisiae carrying the variant on a plasmid
Procedure: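 Pooled growth of yeast carrying single-residue variants of P. jirovecii dihydrofolate reductase (own DFR1 gene intact), two passages at 30 °C, three cultures, sequenced before and after. Codons with under 15 starting reads are left out; codons of one change are averaged.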

| Variant | selection coefficient against synonymous wild-type codons (log2) (methotrexate 8.8 µM) | selection coefficient against synonymous wild-type codons (log2) (methotrexate 44 µM) |
| --- | --- | --- |
| E198V | -0.424 ± 0.059 | -0.386 ± 0.099 |
| E198I | -0.448 ± 0.093 | -0.332 ± 0.086 |
| E198L | -0.476 ± 0.11 | -0.302 ± 0.16 |
| E198C | -0.206 ± 0.059 | -0.246 ± 0.15 |
| E198D | 0.0487 ± 0.039 | 0.00516 ± 0.12 |
| E198F | -0.393 ± 0.076 | -0.513 ± 0.14 |
| E198K | -0.11 ± 0.062 | -0.404 ± 0.097 |
| E198S | 0.0825 ± 0.044 | -0.0505 ± 0.15 |
| E198H | -0.0348 ± 0.073 | -0.118 ± 0.047 |
| E198W | -0.469 ± 0.038 | -0.414 ± 0.095 |
| E198M | -0.308 ± 0.0058 | -0.312 ± 0.17 |
| E198A | -0.161 ± 0.058 | -0.209 ± 0.11 |
| E198P | -0.476 ± 0.069 | -0.113 ± 0.066 |
| E198G | -0.0183 ± 0.06 | -0.0536 ± 0.049 |
| E198Y | -0.302 ± 0.07 | -0.294 ± 0.13 |
| E198T | -0.0876 ± 0.12 | -0.206 ± 0.13 |
| E198R | -0.139 ± 0.027 | -0.202 ± 0.1 |
| E198Q | -0.131 ± 0.067 | -0.117 ± 0.024 |
| E198N | -0.0104 ± 0.036 | -0.226 ± 0.12 |
| I203S | 0.0923 ± 0.028 | 0.0382 ± 0.076 |
| I203G | 0.0625 ± 0.039 | 0.0116 ± 0.11 |
| I203C | 0.0871 ± 0.029 | 0.0454 ± 0.037 |
| I203D | 0.153 ± 0.042 | 0.151 ± 0.092 |

| Variant | selection coefficient against synonymous wild-type codons (log2) (methotrexate 8.8 µM) | selection coefficient against synonymous wild-type codons (log2) (methotrexate 44 µM) |
| --- | --- | --- |
| I203E | 0.195 ± 0.018 | 0.196 ± 0.05 |
| I203R | 0.00454 ± 0.063 | -0.0471 ± 0.13 |
| I203K | 0.0965 ± 0.099 | 0.0691 ± 0.069 |
| I203A | 0.0908 ± 0.068 | 0.0558 ± 0.061 |
| I203M | -0.0336 ± 0.058 | 0.0199 ± 0.063 |
| I203F | -0.0936 ± 0.059 | -0.0894 ± 0.043 |
| I203V | 0.0569 ± 0.043 | 0.0897 ± 0.095 |
| I203W | -0.201 ± 0.036 | -0.176 ± 0.07 |
| I203L | -0.0665 ± 0.054 | -0.0457 ± 0.079 |
| I203T | 0.0935 ± 0.057 | 0.0789 ± 0.18 |
| I203Q | 0.149 ± 0.048 | 0.159 ± 0.062 |
| I203Y | -0.0797 ± 0.051 | -0.0767 ± 0.085 |
| I203N | 0.107 ± 0.073 | 0.0985 ± 0.071 |
| E200D | 0.22 ± 0.064 | 0.18 ± 0.044 |
| E200F | 0.151 ± 0.074 | 0.175 ± 0.06 |
| E200K | 0.319 ± 0.045 | 0.323 ± 0.061 |
| E200H | 0.239 ± 0.017 | 0.232 ± 0.064 |
| E200C | 0.358 ± 0.048 | 0.318 ± 0.039 |
| E200V | 0.298 ± 0.041 | 0.295 ± 0.036 |
| E200G | 0.187 ± 0.055 | 0.104 ± 0.064 |
| E200L | 0.0799 ± 0.093 | 0.0321 ± 0.058 |
| E200R | 0.305 ± 0.073 | 0.309 ± 0.083 |
| E200P | -0.599 ± 0.064 | -0.23 ± 0.06 |

| Variant | selection coefficient against synonymous wild-type codons (log2) (methotrexate 8.8 µM) | selection coefficient against synonymous wild-type codons (log2) (methotrexate 44 µM) |
| --- | --- | --- |
| E200S | 0.25 ± 0.045 | 0.227 ± 0.03 |
| E200W | 0.204 ± 0.061 | 0.247 ± 0.055 |
| E200M | 0.374 ± 0.045 | 0.378 ± 0.019 |
| E200Q | 0.242 ± 0.047 | 0.222 ± 0.089 |
| E200Y | 0.188 ± 0.086 | 0.255 ± 0.07 |
| E200N | 0.346 ± 0.062 | 0.338 ± 0.063 |
| E200I | 0.26 ± 0.038 | 0.237 ± 0.015 |
| F199C | 0.335 ± 0.17 | 0.528 ± 0.1 |
| F199V | 0.426 ± 0.031 | 0.546 ± 0.047 |
| F199Q | 0.774 ± 0.047 | 1.02 ± 0.038 |
| F199W | 0.859 ± 0.056 | 1.16 ± 0.025 |
| F199I | 0.197 ± 0.035 | 0.354 ± 0.016 |
| F199E | 0.425 ± 0.042 | 0.582 ± 0.026 |
| F199D | 0.476 ± 0.037 | 0.675 ± 0.016 |
| F199Y | 0.608 ± 0.048 | 0.924 ± 0.13 |
| F199K | 1.02 ± 0.049 | 1.45 ± 0.051 |
| F199M | 0.258 ± 0.05 | 0.564 ± 0.061 |
| F199T | 0.717 ± 0.079 | 0.913 ± 0.09 |
| F199L | 0.223 ± 0.045 | 0.411 ± 0.1 |
| F199N | 0.536 ± 0.068 | 0.689 ± 0.063 |
| F199S | 0.683 ± 0.029 | 0.878 ± 0.049 |
| F199P | 0.73 ± 0.042 | 1.01 ± 0.038 |
| F199G | 0.372 ± 0.042 | 0.608 ± 0.058 |

| Variant | selection coefficient against synonymous wild-type codons (log2) (methotrexate 8.8 µM) | selection coefficient against synonymous wild-type codons (log2) (methotrexate 44 µM) |
| --- | --- | --- |
| F199R | 1.11 ± 0.072 | 1.63 ± 0.057 |
| F199A | 0.531 ± 0.058 | 0.667 ± 0.042 |
| G194S | -0.171 ± 0.094 | -0.139 ± 0.18 |
| G194M | -0.427 ± 0.033 | -0.299 ± 0.2 |
| G194K | -0.158 ± 0.032 | -0.319 ± 0.14 |
| G194V | -0.336 ± 0.17 | -0.215 ± 0.26 |
| G194R | -0.253 ± 0.17 | -0.19 ± 0.087 |
| G194P | -0.0853 ± 0.082 | -0.284 ± 0.14 |
| G194E | -0.0203 ± 0.055 | -0.063 ± 0.0026 |
| G194A | -0.22 ± 0.11 | -0.248 ± 0.083 |
| G194L | -0.503 ± 0.13 | -0.412 ± 0.14 |
| G194W | -0.535 ± 0.015 | -0.472 ± 0.15 |
| G194Q | -0.117 ± 0.078 | -0.04 ± 0.053 |
| G194C | -0.233 ± 0.038 | -0.0629 ± 0.098 |
| G194T | -0.246 ± 0.1 | -0.193 ± 0.035 |
| G194D | -0.0589 ± 0.036 | -0.0608 ± 0.17 |
| W202N | -0.516 ± 0.11 | -0.192 ± 0.072 |
| W202G | -0.659 ± 0.16 | -0.387 ± 0.098 |
| W202E | -0.798 ± 0.037 | -0.421 ± 0.044 |
| W202F | 0.0926 ± 0.057 | 0.105 ± 0.079 |
| W202V | -0.227 ± 0.077 | -0.174 ± 0.091 |
| W202C | -0.264 ± 0.11 | -0.329 ± 0.019 |
| W202Y | 0.0883 ± 0.051 | -0.0689 ± 0.056 |

| Variant | selection coefficient against synonymous wild-type codons (log2) (methotrexate 8.8 µM) | selection coefficient against synonymous wild-type codons (log2) (methotrexate 44 µM) |
| --- | --- | --- |
| W202A | -0.254 ± 0.11 | -0.133 ± 0.045 |
| W202K | -0.606 ± 0.065 | -0.328 ± 0.12 |
| W202R | -0.26 ± 0.094 | -0.142 ± 0.062 |
| W202M | 0.0886 ± 0.047 | 0.0353 ± 0.023 |
| W202L | 0.107 ± 0.058 | 0.0197 ± 0.12 |
| W202T | -0.679 ± 0.12 | -0.24 ± 0.085 |
| W202D | -0.592 ± 0.11 | -0.266 ± 0.035 |
| W202P | -0.516 ± 0.065 | -0.151 ± 0.053 |
| W202H | -0.074 ± 0.024 | -0.112 ± 0.016 |
| W202I | -0.049 ± 0.08 | -0.0627 ± 0.095 |
| W202S | -0.365 ± 0.11 | -0.134 ± 0.1 |
| W202Q | -0.389 ± 0.089 | -0.287 ± 0.052 |
| M201F | -0.0926 ± 0.045 | -0.115 ± 0.028 |
| M201K | -0.322 ± 0.061 | -0.266 ± 0.12 |
| M201Q | -0.0786 ± 0.066 | -0.287 ± 0.047 |
| M201V | -0.165 ± 0.073 | -0.197 ± 0.07 |
| M201C | -0.0151 ± 0.042 | -0.0102 ± 0.091 |
| M201A | 0.0439 ± 0.046 | -0.158 ± 0.083 |
| M201Y | -0.0251 ± 0.036 | -0.00259 ± 0.14 |
| M201L | -0.0846 ± 0.054 | -0.142 ± 0.16 |
| M201W | -0.35 ± 0.095 | -0.295 ± 0.069 |
| M201P | -0.00913 ± 0.074 | -0.0576 ± 0.092 |
| M201D | -0.0678 ± 0.049 | -0.228 ± 0.16 |
